Data published in PubChem BioAssay AID1768 (National Center for Advancing Translational Sciences (NCATS), 2009).
Hit rate of the full screen: of about 270,000 compounds, about 620 (0.23%) were called active. The shares of active, inactive and inconclusive entries below differ from those in the screen. Calls come from the whole dose curve; as a rule, active = well fitted inhibition curve with a large enough effect in the polarisation, with a control signal flat (not every such curve was filed as active); inconclusive = small, poorly fitted or top-dose-only effect, or effect the other way, or a change in a side signal; inactive = no such curve, though single readings can be large or run the other way; the % refers to the polarisation. Where the call is inconclusive, the potency comes from a doubtful curve fit. “Side channel” marks fits to a control or component signal instead of the main read-out.

Target: Menin (Homo sapiens) (UniProt O00255)
Assay: qHTS Assay for Inhibitors Targeting the Menin-MLL Interaction in MLL Related Leukemias: Competition With Texas Red Labeled MLL-derived Mutant Peptide
Settings: fluorescence polarization; series mostly up to 61.6 µM
Potency is the fitted concentration of half-maximal effect; tags give direction and shape of the fitted curve or compound fluorescence and quenching.

UniProt O00255, sequence (O00255 whole entry, looked up): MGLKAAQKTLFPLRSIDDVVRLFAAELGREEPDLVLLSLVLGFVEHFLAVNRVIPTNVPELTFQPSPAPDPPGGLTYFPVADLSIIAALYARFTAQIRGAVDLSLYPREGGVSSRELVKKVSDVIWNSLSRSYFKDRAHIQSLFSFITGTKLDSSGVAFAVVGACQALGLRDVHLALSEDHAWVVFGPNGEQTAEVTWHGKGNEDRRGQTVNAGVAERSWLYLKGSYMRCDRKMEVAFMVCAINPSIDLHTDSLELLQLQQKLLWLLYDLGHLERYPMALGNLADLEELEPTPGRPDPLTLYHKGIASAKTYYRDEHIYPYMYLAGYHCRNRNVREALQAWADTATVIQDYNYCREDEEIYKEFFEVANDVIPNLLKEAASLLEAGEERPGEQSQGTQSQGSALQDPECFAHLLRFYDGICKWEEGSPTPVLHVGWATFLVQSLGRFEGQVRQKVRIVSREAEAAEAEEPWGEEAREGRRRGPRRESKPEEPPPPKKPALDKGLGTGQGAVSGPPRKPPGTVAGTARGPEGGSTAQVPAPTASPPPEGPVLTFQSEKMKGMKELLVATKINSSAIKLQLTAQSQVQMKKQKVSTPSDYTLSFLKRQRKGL

Potency, inconclusive:
COc1ccc(C2CC(c3cccs3)=NN2C(=O)c2ccccc2)cc1OC (configuration not stated) 31.6 µM [fluorescent, side channel, partial curve], O=C(CCSCc1ccccc1Cl)N1CCN(c2cccc(Cl)c2)CC1 8.91 µM [inhibitor, full curve, poor fit], COc1ccc(NC(=O)CN2CCN(CC(=O)Nc3ccc4c(c3)OCO4)CC2)cc1 39.8 µM [fluorescent, side channel, single point], O=C(Nc1nc(-c2ccc(-c3ccccc3)cc2)cs1)c1cc([N+](=O)[O-])ccc1N1CCOCC1 10 µM [quencher, side channel, partial curve], Nc1nc(-c2ccc(Br)cc2)c(S(=O)(=O)c2ccccc2)s1 25.1 µM [quencher, side channel, single point], CNc1ccc(/C=C(\CCC(=O)O)c2nc3ccccc3s2)cc1[N+](=O)[O-] 39.8 µM [quencher, side channel, single point], C/C(=C\c1ccc(F)cc1)C(=O)c1c(C)cc(C)[nH]c1=O 15.8 µM [inhibitor, partial curve, poor fit], COc1ccc(C(=O)NC(NC(=S)Nc2ccc(S(N)(=O)=O)cc2)C(Cl)(Cl)Cl)cc1 (configuration not stated) 10 µM [quencher, side channel, partial curve], O=C(CSc1nc2sccc2c(=O)[nH]1)N1CCN(c2ccccc2)CC1 20 µM [quencher, side channel, partial curve], CC(=O)NN1CCc2cc3ccc(C)cc3nc21 3.98 µM [quencher, side channel, single point], CCOc1cc(N(CC)CC)ccc1/C=C(/C#N)c1nc2ccccc2[nH]1 10 µM [quencher, side channel, partial curve], S=C(Nc1ccc(N2CCOCC2)cc1)Nc1ccc2nc(-c3ccco3)c(-c3ccco3)nc2c1 7.08 µM [quencher, side channel, partial curve], Cc1ccc(C(=O)Nc2ccccc2C(=O)NC(Cc2c[nH]c3ccccc23)C(=O)O)cc1 (configuration not stated) 25.1 µM [quencher, side channel, partial curve], CC(C)C(=O)Nc1ccc(NC(=O)c2cc3ccccc3o2)cc1 39.8 µM [inhibitor, single point], N#C/C(=C\c1ccc(N2CCOCC2)o1)C(=O)Nc1ccc(O)cc1 10 µM [quencher, side channel, partial curve], Oc1c(N=NC(=S)Nc2ccccc2F)c2ccccc2n1Cc1ccccc1F 12.6 µM [quencher, side channel, partial curve], CCN1CCCC1CN(Cc1cc2cc(C)ccc2[nH]c1=O)C(=O)Nc1ccccc1OC (configuration not stated) 28.2 µM [inhibitor, single point], Cc1cc2nc3c(=O)[nH]c(=O)[nH]c3nc2c([N+](=O)[O-])c1N 15.8 µM [quencher, side channel, partial curve], COc1ccccc1NC(=O)COc1ccc(Br)cc1CO 6.31 µM [fluorescent, side channel, single point], COc1cccc(C2CC(c3ccccc3)=NN2S(=O)(=O)c2ccccc2)c1OC (configuration not stated) 7.94 µM [fluorescent, side channel, full curve], O=C(c1ccccc1F)N1CCC(N2CCCCCC2)CC1 28.2 µM [inhibitor, partial curve], Fc1ccccc1OCCCCSc1ncccn1 10 µM [inhibitor, single point], Cc1c(C)c(C)c(S(=O)(=O)Nc2ccc3[nH]c(=O)[nH]c3c2)c(C)c1C 28.2 µM [fluorescent, side channel, single point], COc1ccc(/C=N/n2cnc3c(sc(=S)n3-c3ccccc3)c2=O)cc1 31.6 µM [fluorescent, side channel, partial curve], C=CCn1c(O)c(N=NC(=S)Nc2ccccc2F)c2ccccc21 12.6 µM [quencher, partial curve], Oc1ccccc1N1CCN(C(=S)Nc2ccc(SC(F)F)cc2)CC1 10 µM [quencher, side channel, partial curve], COc1ccc(OCc2nnc(SCC(=O)Nc3ccccc3F)o2)cc1 31.6 µM [inhibitor, single point], Cc1ccc(NC2=CC(=O)c3sc(C)nc3C2=O)cc1 3.98 µM [quencher, side channel, full curve], Cc1nnsc1C(=O)N/N=C/c1ccccc1 6.31 µM [inhibitor, single point], O=C(Nc1nc2c(Cl)ccc(Cl)c2s1)C1CC1 31.6 µM [inhibitor, single point], Cc1nc(Nc2ccccc2Br)c2nnn(Cc3ccccc3)c2n1 39.8 µM [inhibitor, single point], CCOC(=O)c1c(C)nc2sc3c(=O)n(-c4ccc(C)cc4)cnc3c2c1-c1ccc(OC)cc1 1.78 µM [inhibitor, partial curve]

Potency, inactive:
N=c1c(C(=O)NCc2ccco2)cc2c(=O)n3ccccc3nc2n1Cc1ccccc1, COC(=O)c1ccc(CN2CCC(CO)(Cc3cccc(OC)c3)CC2)cc1, CCOC(=O)C1CCN(C(=O)c2cc3cc4cc(OC)ccc4nc3o2)CC1, O=C(O)CCC(=O)Nc1ccc(Cc2ccc(NC(=O)CCC(=O)O)c(O)c2)cc1O, Cc1ccc(F)c(C2C3C=CCCC3(C)C(=O)N2Cc2ccccc2)c1 (configuration not stated)
